The whole screen tested about 310,000 compounds, of which about 14,000 (4.5%) showed an effect of 50% or more. The effect is printed as a negative number. The list shows a part of the results.
biological target: human ether-à-go-go-related gene (hERG) potassium channel (human, UniProt Q12809); assay: primary screen, population patch clamp on CHO cells stably expressing hERG
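Also: peak tail current of the secondary pulse compared with the same well before compound.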

human ether-à-go-go-related gene (hERG) potassium channel, sequence (Q12809 whole entry, looked up): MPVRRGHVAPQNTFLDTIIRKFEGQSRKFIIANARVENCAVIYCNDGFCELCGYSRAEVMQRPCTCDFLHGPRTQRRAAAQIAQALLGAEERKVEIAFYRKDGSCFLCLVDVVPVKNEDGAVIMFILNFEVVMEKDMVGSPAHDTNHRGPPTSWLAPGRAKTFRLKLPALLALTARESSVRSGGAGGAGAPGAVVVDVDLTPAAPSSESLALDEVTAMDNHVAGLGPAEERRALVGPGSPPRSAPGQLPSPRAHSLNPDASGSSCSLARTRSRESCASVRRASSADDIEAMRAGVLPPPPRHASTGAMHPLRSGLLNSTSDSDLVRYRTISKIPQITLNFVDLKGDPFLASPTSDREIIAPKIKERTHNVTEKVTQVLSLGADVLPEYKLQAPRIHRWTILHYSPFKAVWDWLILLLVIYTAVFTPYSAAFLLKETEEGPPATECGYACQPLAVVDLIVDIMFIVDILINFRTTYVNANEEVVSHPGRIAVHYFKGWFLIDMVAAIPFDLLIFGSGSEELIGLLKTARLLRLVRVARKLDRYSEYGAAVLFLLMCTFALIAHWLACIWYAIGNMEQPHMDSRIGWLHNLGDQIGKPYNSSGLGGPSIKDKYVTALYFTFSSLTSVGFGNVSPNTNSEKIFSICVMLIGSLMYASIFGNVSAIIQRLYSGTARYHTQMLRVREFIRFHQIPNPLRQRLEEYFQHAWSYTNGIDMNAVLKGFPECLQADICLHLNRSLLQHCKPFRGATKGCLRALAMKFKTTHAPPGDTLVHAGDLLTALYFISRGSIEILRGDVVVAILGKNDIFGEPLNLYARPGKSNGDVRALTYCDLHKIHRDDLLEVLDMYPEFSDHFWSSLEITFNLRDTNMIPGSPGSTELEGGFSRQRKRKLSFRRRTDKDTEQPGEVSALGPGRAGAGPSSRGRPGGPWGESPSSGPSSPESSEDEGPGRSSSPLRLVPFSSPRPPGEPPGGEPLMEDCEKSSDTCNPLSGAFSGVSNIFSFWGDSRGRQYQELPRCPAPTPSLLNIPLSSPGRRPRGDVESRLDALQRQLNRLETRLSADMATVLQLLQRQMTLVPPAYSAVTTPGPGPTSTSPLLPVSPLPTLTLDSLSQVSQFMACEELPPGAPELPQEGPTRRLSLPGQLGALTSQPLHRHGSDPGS

SMILES	hERG current change (%, negative = inhibition) at 10uM [%]
C=C(C)CSc1nc2c(c(=O)[nH]c(=O)n2C)n1Cc1ccccc1	-12.3
CC(C)(SC(=S)N1CCOCC1)C(=O)O	8.01
CCOc1ccc(NC(=O)CN(C)C(=O)CCc2ccccc2Cl)cc1OCC	-25.2
O=C(COC(=O)c1ccccn1)NCc1ccccc1	2.45
Cn1c(CNC(=O)c2ccco2)nnc1SCC(=O)Nc1cccc(F)c1	4.12
CC(C)(CO)NCc1cccc(OCc2ccc(Cl)cc2)c1	-30.8
COc1ccccc1/C=C1/C(=O)ON=C1C	12.5
O=C(Nc1cccnc1)C1=NN(C2CCS(=O)(=O)C2)C(=O)CC1 (centres unmarked)	21.2
COc1cccc(-n2c(CN3CCN(c4ccc(C)cc4)C(C)C3)nc3ccc([N+](=O)[O-])cc3c2=O)c1 (centres unmarked)	-6.99
CCC(=NCCc1c(C)[nH]c2ccc(C)cc12)C1=C(O)CC(c2ccccc2)CC1=O (centres unmarked)	3.02
COc1ccc(CNC(=O)C(=O)NCC2OCCN2S(=O)(=O)c2ccccc2)cc1 (centres unmarked)	1.17
COc1ccc(OCC(=O)Nc2ccc(N3CCCCC3)cc2)cc1	13.9
CC(/C=C/c1cccc([N+](=O)[O-])c1)=N\NC(=O)c1ccncc1	-46.5
COC(=O)Cc1cc(=O)n2[nH]c(C)c(-c3ccccc3)c2n1	9.6
CCC1Oc2ccccc2N(CC(=O)NCCC2=CCCCC2)C1=O (centres unmarked)	3.64
COc1ccc(C2(C(=O)N3CCOCC3)CCOCC2)cc1OC	22.5
CCCN1C(=O)/C(=N\OCC(=O)NCC(F)(F)F)c2ccccc21	-2.52
Cc1nn(-c2ccccc2)c(C)c1CN	-5.52
C=CC[N+](C)(C)CC(=O)OCc1ccccc1.[Br-]	1.34
Cc1cc(C)nc(SCc2cn3cc(Cl)ccc3n2)n1	-15.2
COc1ccc2c(c1)cc1c(=O)n(CC(=O)NCCCOC(C)C)nc(C)n12	19.1
CN(C)c1cc(N)c2ccccc2n1.O=C(O)c1cc(=O)[nH]c(=O)[nH]1	-18.5

SMILES	hERG current change (%, negative = inhibition) at 10uM [%]
CCOCCCNC(=O)/C=C1\Sc2ccccc2N(Cc2ccccc2F)C1=O	-9.66
CCCCN1CCCCC1C(=O)Nc1c(C)cccc1C.Cl (centres unmarked)	-1.6
CSc1ccccc1NC(=S)Nc1cc(C)cc(C)c1	12.2
CCN(c1ccc(C)cc1C)S(=O)(=O)c1nnc(NC(=O)C(C)C)s1	18.2
Cc1cc(C)cc(NC(=O)C2CCCN2S(=O)(=O)c2cccc3cccnc23)c1 (centres unmarked)	-4.26
COc1ccc(C(=O)N2CCC(C(=O)c3ccc(F)cc3)CC2)cc1	-70.2
O=C(N/N=C/c1cccs1)/C(=C/c1ccccc1)NC(=O)c1ccccc1	-24.1
CCOc1ccccc1NC(=O)CSc1nnc(-c2ccccn2)n1Cc1ccco1	-67.3
Cc1cc(C)c(S(=O)(=O)c2ccccc2)c(N(C)C)n1	4.06
CCC(/C=C1\Sc2ccc(OC)cc2N1CCO)=C\c1sc2ccc(OC)cc2[n+]1CCO.[Cl-]	-72.9
O=C(N/N=C/c1ccccn1)c1ccc(N/N=C/c2ccccn2)cc1.O=S(=O)(O)O	12.2
O=C1/C(=C/c2ccccc2)SC(=S)N1CC(=O)N1CCCCC1c1cccnc1 (centres unmarked)	-10.9
O=C1Cc2ccccc2C(=O)N1Cc1ccccc1	1.63
COc1ccc(S(=O)(=O)NCC(c2ccco2)N2CCOCC2)cc1 (centres unmarked)	-19.1
O=C(CSc1ncccn1)Nc1ccc(N2CCOCC2)cc1	-11.8
Cn1c(C(=O)N2CCC(C(=O)N3CCN(Cc4ccc5c(c4)OCO5)CC3)CC2)cc2sccc21	-60.6
CN(C)C(=O)CSc1nnc(CCN)o1.Cl	-3
CN(CCN1CCOCC1)C(=O)c1cc(COc2ccc(F)c(F)c2)on1	-9.71
O=C(/C=C/c1ccccc1)Nn1cnc2ccccc2c1=O	2.91
CC(C)C[C@H](NC(=O)N1CCn2c1nc1ccccc12)C(=O)NC1CCCCC1	4.85
COc1cc(Cl)ccc1OCc1cc(C(=O)N2CCCC(OC)C2)no1 (centres unmarked)	-6.56
COc1ccc(NC(=O)c2sc3ncn(CC(=O)N4CCCCC4)c(=O)c3c2C)cc1OC	15
